The other results are listed elsewhere or left out.
test system: PF3D7_0420300 AP2 domain 1 (GST-tagged); test: gcPBM binding intensity (ln(normalized median fluorescence intensity)); higher = stronger DNA binding
In short: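 Binding intensity is defined as the maximum Masliner-normalised natural-log median intensity across replicate spots for either probe orientation. It was measured on an Agilent 4 × 180k array of primer-extended double-stranded 36-bp intergenic genomic probes and negative controls, to which GST-tagged P. falciparum DNA-binding domains made in E. coli were applied for 1 h in 1× PBS with 1% milk, 0.2 mg/ml BSA, 0.5% salmon testes DNA and 0.03% Triton X-100. Detection was by Alexa488 anti-GST antibody and scanning at 488 nm.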

Sequence	gcPBM binding intensity (ln)
TTTTAAAAAATATAATAATATAAATATTTTATACGT [TGCATGCA_negctrl_site252]	8.84
CATATATATATATGAACACACAAAAAGAATATTTCC [CACACA_site1493]	9.59
TCTATACCTATTCTTACACACATATGTATTTATATA [CACACA_site4475]	9.81
TTCTATGCATTTATAGTGCATGTAAAATATAAGATA [GTGCAC_site9466]	8.79
AATTATATTTAGTATATGCACACTTTATGTTTGTTA [CACACA_site2025]	9.42
GTAGAAAGAAAAATTAGTACTTAAATATTATAAAAA [XGTACX_site8458]	9.11
TTTAAAAAAAAAAAAAATTTTTTTTTTTTTTTTTTA [CACACA_negctrl_site1415]	8.52
TTTATATACTATCAACGTACAAAAGTAATAAAAATA [XGTACX_site4343]	9.03
GGATTTTACCATAGCACACATATATGAATATTTTTC [CACACA_site1814]	9.44
TTGTAACAAAAGTACACACACATTTCTATAAATTTT [CACACA_site2772]	9.6
CATTTTATTTTCTTTGTGCACAAAAATATTTTTTCT	9.3
AAAGTTATGATATATACACACATATAAATATTAAAT [CACACA_site6361]	9.49
TGTTCTAATTTTAATTGTACATATATACATATATAT [XGTACX_site7290]	9.46
GTAAATATATATATATATATATATATATATATATAT [GTGCAC_negctrl_site239]	9.16
TTCTGTATACGGTGTGCACACAATTAAAAAAAAAAA [CACACA_site1416]	9.47
AACATATAAAAATATGCACACACAGGAATACAAACA [CACACA_site8127]	10.3
TTAAATAACCTCAAGGATAAGAAAAAATTAAAAATT [CACACA_negctrl_site1336]	9.15
CTTTATATATATTGCGTGCACATTTTTTTTTTTTTT	9.49
CTATTTAAAATTTGAACACACATTATTTATTTTAAA [CACACA_site3114]	9.17
GAAATAATAAAATCGACACACAAAAAAAAAAAAAAA [CACACA_site3476]	9.32
AATAAATACAAAAATGTACACACATATATATATTTT [CACACA_site9167]	9.56
TCAATATATATAAGAAGTACATGTGAATGAAAAAAA [XGTACX_site1674]	9.39

Sequence	gcPBM binding intensity (ln)
ATATCAAATAATTTAGTGCACTTTTTTTTTTCTTTT [GTGCAC_site9629]	9.24
AAGGAATAAAATTTAGAAGACAATTTTATTTCAGTA [XGTACX_negctrl_site331]	8.98
GGTATTTTCACATATAGTACACAAAAATAAAATAAA [XGTACX_site2139]	9.09
TTTTTTTTTTTTTTTTTTTTTTTCTACCTATTTATT [CACACA_negctrl_site94]	8.35
TATGTATATTGAGATTGTACTTGTAATATTAAACAT [XGTACX_site3878]	9.07
TTGTATAAAATATGTAGTACAATAATATAACATTTT [XGTACX_site8607]	9.29
AATAATAAAAATATTGTGCACTTGTATATTTATTAT [GTGCAC_site9963]	9.3
AAAAAATACCAAAGGGGTACTTACACATAATACTTA [XGTACX_site2111]	9.29
CATCAAAATGAAGCATGTACATAATATAAATAAATA [XGTACX_site4647]	9.22
CTTTTTACTTAATACACACACACACCCAAAAAAAAA [CACACA_site948]	9.97
TTTATACTTTCAAAATGTACATATATATATATATAT [XGTACX_site6241]	9.1
CTAATCATAAAATATACACACACGGATACATTAAAT [CACACA_site2685]	10.1
ATTGAAGGGAAATATATAATCATATTCAAAATAAAA [CACACA_negctrl_site728]	9.15
ATTTCTCTATCGTAATGTACAAAAAAAAGGGAAAAG [XGTACX_site1335]	9.2
TAATATATAATTTTATGTACATAATTATAAACCCAT [XGTACX_site919]	9.5
TGAATGCTTTTATGCACACGTACAAAAATATTATAT [CACACA_site2668]	9.14
AATAAAAATAACCTAACATGCAAAAAAAAAAAAAAA [TGCATGCA_site718]	9.28
GTCATTAAAAAAATATGTACTTAAATGTATGCATAT [XGTACX_site5951]	9.13
TATAATAAATCAAATGCACACACACTAATAAAAAAA [CACACA_site7937]	10.1
GGAATATAAATACATACACACATATATATATATATA [CACACA_site4998]	9.44
TGTTGTTATAAAAAAAAAAAAAAAAAAAAAAAAAAA [GTGCAC_negctrl_site230]	8.55
ATATAAAATAAATAAGTGCAGATAAATTTATGTGAC [GTGCAC_site9504]	9.73

Sequence	gcPBM binding intensity (ln)
TGTGGTTTTTATAATTGTACATATATATAAATCTAT [XGTACX_site4766]	9.41
TATATATTATATATATGTACTTATTTATTAATTTAT [XGTACX_site5253]	9.2
TACATGCTTATTTTAACACACAAATGGTAGTAATAA [CACACA_site766]	9.29
ATGAATATTTACAATCTTATTATGTTCAAAATTAAT [CACACA_negctrl_site592]	9.02
TGACGACATTTCTTATGTACTAATTTTTCTTCCTTT [XGTACX_site4391]	9.21
TAAAAAAAGAAAAAAAGTACATGCTACTTTTATGAT [XGTACX_site7818]	9.19
CAAAATGATATGACAACACACAACCTATAGTAAGAC [CACACA_site1287]	9.96
TAATATATAATAAAGTGTACATATGCTTTATTATTA [XGTACX_site1920]	9.08
AAGTTATACACATCAACACACACATACAACGTGGTG [CACACA_site8312]	9.79
TAAACACATTATATATGTACATAATAAAAAAAAAAA [XGTACX_site7907]	9.24
TATATAATATAATGTAGTACATGTTTTATTTTTTAC [XGTACX_site7735]	9.38
ATTTATTTATTTTCATGTACATATGTAAATCAATAA [XGTACX_site3886]	9.01
ATAAAATACAAAGGGACACACATATGAGTCTACAAA [CACACA_site3092]	9.64
ATATTAACTTTTATTACACACTCTCAACTTTTATTT [CACACA_site6176]	9.72
TCACAAATGTATTATACACACAAGTTTTCTTTAATA [CACACA_site4107]	9.44
ATTATAAATAAATATTGTACTTATATGATCTATTTG [XGTACX_site3820]	9.13
AGAATAATATAATAAAGTACAAACCTATCTAACTAC [XGTACX_site5477]	9.69
CCTTTCACATATAATACATGCATTATTATATATGAA [TGCATGCA_site287]	9.14
GGATATATTATATGTACACACACATATAAGGGATTA [CACACA_site7884]	9.7
ATTGCATTTGTAGATAATACAATATGGATTGTTATA [CACACA_negctrl_site1749]	9.08
AAAAATTTTATATTCACACACATATTTATATTTATA [CACACA_site6439]	9.51
ATATATAAAAAAGCTAGTACACAAAAATATATAATG [XGTACX_site3001]	9.77

Sequence	gcPBM binding intensity (ln)
TTCTTTTCTCTTTTAATCATATTATATAAATGAATA [CACACA_negctrl_site820]	9.14
AAAAAAATTTATTAAAGTACTAGATAATCATATAAA [XGTACX_site1455]	9.03
TTATACAACAAGAAAATTATAAAATGTAACATATAT [GTGCAC_negctrl_site406]	9.37
ATATTAATATAATGTGCATGTTCAATGATCTTTTTA [TGCATGCA_site22]	9.15
ATAATTATTAATATAGTGCATTGGCATAATAATATA [GTGCAC_site9810]	9.21
TATTTTTTAACACAACGTACATATAAAAAATATTTA [XGTACX_site6025]	8.98
TACAAATATATATGCACACACATATATGTATATGTG [CACACA_site3075]	9.63
TTAGATATAATATATACACACCAACGAACGAAGAAA [CACACA_site4763]	9.82
AGTAAATAACACAAATATGAATGAAAAAAAAAATAT [GTGCAC_negctrl_site235]	9.73
TGTGCGGAAATAAGTGCACACATAGATATCTGTATT [CACACA_site5935]	9.37
CAACTTATTAAAAGTCGTACAAATGGGAAGAAGGAA [XGTACX_site6325]	9.32
ATATATATATAGTACGCACACATAGTTGTACATTAA [CACACA_site2787]	9.38
CGTATGAGTAAATACACACCCACGTATATATATAAA [CACACA_site5728]	9.29
GAGTAAAAATTAAAATGTACATATTATATATATTTA [XGTACX_site1319]	9.09
ATGAATGTCCCAAGATGTACAATTATATATAACACA [XGTACX_site4702]	9.17
AAATCCTTATTTTTTTGTACGTAATATTTTATATGG [XGTACX_site1530]	9.35
TAATAAATAAGACACACACACATATATATATATTAT [CACACA_site1389]	10.2
TTTTAAGATATAAATTAATACTTATATATATAGATA [CACACA_negctrl_site22]	8.88
ACATTAAAAAAAAAATGTACATAAATATTTTTCCTT [XGTACX_site4361]	9.01
AATTTTATTCATTGAGCACACAAAATAAATTATCAA [CACACA_site9079]	9.08
ATCTTTTATATAAAATGTACAGAGTTTGAAAGAATA [XGTACX_site8826]	8.95
GTATTACAACGACACACACACCTATATATCATAGTA [CACACA_site7877]	9.96
